# The campaign covered roughly 310,000 compounds. About 2,200 (0.71%) showed an effect of 50% or more. The effect is printed as a negative number. Some of the results follow.
# Molecular target: human ether-à-go-go-related gene (hERG) potassium channel (human, UniProt Q12809)
# Test: primary screen, population patch clamp on CHO cells stably expressing hERG
# Chain of human ether-à-go-go-related gene (hERG) potassium channel (Q12809 whole entry, looked up): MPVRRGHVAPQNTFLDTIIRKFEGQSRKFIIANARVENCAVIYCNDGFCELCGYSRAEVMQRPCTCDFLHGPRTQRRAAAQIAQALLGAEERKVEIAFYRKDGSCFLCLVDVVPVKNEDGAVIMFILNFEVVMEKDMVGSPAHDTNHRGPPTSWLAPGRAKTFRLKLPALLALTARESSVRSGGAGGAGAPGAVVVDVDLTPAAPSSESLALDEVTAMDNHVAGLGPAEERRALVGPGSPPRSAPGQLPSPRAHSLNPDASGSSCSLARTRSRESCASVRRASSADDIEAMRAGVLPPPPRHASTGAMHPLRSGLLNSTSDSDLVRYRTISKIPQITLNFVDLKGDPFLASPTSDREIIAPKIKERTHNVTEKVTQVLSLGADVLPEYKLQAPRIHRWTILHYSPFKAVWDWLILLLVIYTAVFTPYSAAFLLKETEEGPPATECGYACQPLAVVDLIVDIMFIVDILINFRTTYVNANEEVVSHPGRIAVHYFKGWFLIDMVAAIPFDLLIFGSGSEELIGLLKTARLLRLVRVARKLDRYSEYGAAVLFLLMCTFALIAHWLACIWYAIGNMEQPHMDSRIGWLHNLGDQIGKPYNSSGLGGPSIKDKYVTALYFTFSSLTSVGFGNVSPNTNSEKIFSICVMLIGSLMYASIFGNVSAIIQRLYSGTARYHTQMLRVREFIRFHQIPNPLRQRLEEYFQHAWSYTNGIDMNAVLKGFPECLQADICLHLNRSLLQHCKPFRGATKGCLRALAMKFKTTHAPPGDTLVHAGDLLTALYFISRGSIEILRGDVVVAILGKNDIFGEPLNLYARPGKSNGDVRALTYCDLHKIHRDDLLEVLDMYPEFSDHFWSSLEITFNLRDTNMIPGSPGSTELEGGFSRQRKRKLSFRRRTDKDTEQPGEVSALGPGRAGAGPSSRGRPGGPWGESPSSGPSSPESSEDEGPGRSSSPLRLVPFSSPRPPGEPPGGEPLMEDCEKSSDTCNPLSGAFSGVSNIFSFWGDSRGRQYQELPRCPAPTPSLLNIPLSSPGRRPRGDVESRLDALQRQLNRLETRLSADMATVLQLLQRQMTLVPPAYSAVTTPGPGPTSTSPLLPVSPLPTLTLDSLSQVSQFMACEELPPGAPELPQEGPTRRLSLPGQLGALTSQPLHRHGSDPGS
row,Structure (SMILES),"hERG current change (%, negative = inhibition) at 1uM [%]"
1,CCn1c(NCc2ccccc2NS(=O)(=O)c2ccc(C)cc2)nc2ccccc21,8.36
2,Cc1ccccc1COc1ccc(-c2nn[nH]n2)cc1,9.57
3,CCCN(CC(=O)Nc1ccccc1C)C(=O)Cc1c(C)nc2ccccc2c1C,-39.3
4,CN(C)C(CNC(=O)c1cc(S(=O)(=O)N(C)c2ccccc2)ccc1Cl)c1ccccc1 (stereo not shown),3.7
5,COC(=O)CCc1c(C)[nH]c(=S)[nH]c1=O,6.53
6,O=C1CC(c2c(F)cccc2Cl)C2=C(COC2=O)N1 (stereo not shown),0.238
7,COc1ccc(C2C(C#N)=C(N)Oc3cc(O)ccc32)cc1Cl (stereo not shown),11.4
8,CCOc1cc(/C=C2\C(=O)N(CCc3ccc(OC)c(OC)c3)C(C)=C2C(=O)OC)ccc1O,16.8
9,Cc1ccc(OCC(=O)Nc2nc(-c3ccccn3)cs2)c(C)c1,8.87
10,CC(C)Cc1nc(C#N)c(N2CCC(C(N)=O)CC2)o1,9.71
11,Cc1cc(NC2CCCCC2)nc(NCc2ccccc2)n1,-2.46
12,Cc1ccc(S(=O)(=O)NC(C)C(c2cccs2)N2CCOCC2)cc1 (stereo not shown),7.31
13,Cc1ccc(NC(=O)CN2CCc3ccccc3C2)cc1S(=O)(=O)N(C)C,2.01
14,O=C(NCCc1c[nH]c2ccccc12)/C(=C\c1ccco1)NC(=O)c1ccco1,13.4
15,Nc1ccn(C2CC(O)C(CO)O2)c(=O)n1 (stereo not shown),8.11
16,COc1ccc(N(CC(=O)NCCSc2ccccc2)S(C)(=O)=O)cc1,10.1
17,COC(=O)c1cc(C#N)c(OC)nc1C,16
18,N#C/C(=C\c1ccc(-c2ccc(F)cc2)o1)C(=O)Nc1nc(-c2cccs2)cs1,11.3
19,O=S(=O)(c1cccc(C(F)(F)F)c1)N1CCCC1c1cccnc1 (stereo not shown),9.57
20,CCC(C)NC(=O)N[C@@H](Cc1ccccc1)C(=O)O (stereo partly shown),-4.86
21,COc1ccccc1/C=C/C1=NC(=C\C=C/c2ccccc2)/C(=O)O1,5.3
22,CCCCCCc1cc2cc(C(=O)NC)c(=N)oc2cc1O,6.88
23,Cc1ccc(NC(=O)c2onc(C)c2Cl)cc1,4.97

row,Structure (SMILES),"hERG current change (%, negative = inhibition) at 1uM [%]"
1,CN1CCN(S(=O)(=O)c2ccc(NC(=S)NC(=O)C3CCC3)cc2)CC1,7.31
2,CCNC(=O)CC1C(=O)N(c2ccc(C)cc2)C(=O)N1CCc1sccc1C (stereo not shown),-0.569
3,CCCCNC(=O)c1cc([N+](=O)[O-])[nH]n1,19.9
4,COc1cccc(-c2nnc(SCc3ccccn3)n2C)c1,0.907
5,CN(C)S(=O)(=O)c1cc(C(=O)O)c(NC2CCCCC2)cc1Cl,7.3
6,N#CC1=C(SCC(=O)Nc2nccs2)NC(=O)CC1c1ccccc1 (stereo not shown),-7.41
7,CN1C(=O)/C(=C\c2ccc(-c3ccccc3)o2)SC1=S,12.6
8,Nc1nc(NCc2ccco2)nc(Nc2ccccc2)c1[N+](=O)[O-],2.48
9,CC(C)c1ccc(CSc2ccc(S(=O)(=O)N3CCOCC3)cn2)cc1,8.02
10,COc1ccc(-c2csc(NC(=O)c3cccc(S(=O)(=O)N4CCN(C)CC4)c3)n2)cc1,6.25
11,Cc1ccsc1/C=N/N=C/c1sccc1C,12.8
12,O=C(O)C(Cc1c[nH]c2ccccc12)NS(=O)(=O)c1ccccc1 (stereo not shown),1.94
13,O=C(O)CCCC(=O)Nc1c(F)c(F)c(F)c(F)c1F,9.46
14,CCN1C(=O)c2cccc3c(S(=O)(=O)Nc4nc(C)cs4)ccc1c23,14.3
15,CC1(C)C(C(=O)O)N2C(=O)C(NC(=O)Cc3ccccc3)C2S1=O.O (stereo not shown),9.77
16,CC(=O)Nc1ccc(C(=O)/C=C/c2ccc[nH]2)cc1,13
17,CC(C)C(C)(C#N)NC(=O)CSc1nnc(C(F)(F)F)n1C (stereo not shown),8.97
18,Cc1ccc(C)c(N2CCN(C(=O)Cn3cccc3)CC2)c1,-11.4
19,Cc1nn(C)c(C)c1Nc1ccc(N2C(=O)C3CC=CCC3C2=O)cc1[N+](=O)[O-] (stereo not shown),3.98
20,Cc1cc(N(C)C)nc(Nc2ccccc2)n1,-27.8
21,O=C(NN=C1CCCCCC1)c1ccc2c(c1)OCO2,16.9
22,C=CCn1nnnc1-c1cccc(Cl)c1,13.2
23,CCNc1nc(NC(C)C)nc(N(C)C#N)n1,11

# — publication PMC4336329 (PLoS ONE, 2015)
